This passage reports enrichment score results from the supplement of paper PMC10369915.

This is one part of the list. No stated cut-off is given here; in the data, active = 3.2 or more and inactive = the rest. Only a few entries rise above the background.

B1: PGK1_Y161_D164V (peptide)
chain: KLGDVYVNVAF
B2: PFKFB3_Y194_YF (peptide)
chain: KRISCYEASFQ
B3: PIGB_Y402 (peptide)
chain: LFLALYTGLVH
B4: PHEX_Y250 (peptide)
chain: YRDALYKFMVD
B5: PEAK1_Y797 (peptide)
chain: SVEELYAIPPD
B6: PHEX_Y250_YF (peptide)
chain: FRDALYKFMVD
B7: PFKFB3_Y194_S197R_YF (peptide)
chain: KRISCYEARFQ
B8: PGAM2_Y92_E89A (peptide)
chain: LNARHYGGLTG
B9: PHEX_Y250_M253I_YF (peptide)
chain: FRDALYKFIVD
B10: PFKM_Y103 (peptide)
chain: RLRAAYNLVKR
B11: PHIP_Y16_F17S (peptide)
chain: LRSELYSLIAR
B12: PIGB_Y402_H407R (peptide)
chain: LFLALYTGLVR
B13: PIGN_Y227 (peptide)
chain: PSSRDYKHNIK
B14: PEAK1_Y797_S792I (peptide)
chain: IVEELYAIPPD
B15: PFKFB3_Y194 (peptide)
chain: KRISCYEASYQ
B16: PGM1_Y66 (peptide)
chain: GDGRFYMKEAI
B17: PIGA_Y82 (peptide)
chain: RKGIRYLTSGL
B18: PEAK1_Y616_H611Q (peptide)
chain: QDEPTYARSSK
B19: PGM1_Y521_YF (peptide)
chain: LFIDSYEKDVA
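Further: displayed peptides selected on beads carrying the immobilized SH2 domain, with library peptides lacking any tyrosine serving as negative controls.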

The target of the first experiment is SHP2 C-SH2 domain E139D. As to the kind of experiment: enrichment score (SH2-bound / input frequency) (ratio); bacterial display of known human phosphotyrosine sites (pTyr-Var adds point mutants) read by sequencing; higher = stronger binding; tyrosines were phosphorylated by kinases first. Conditions: peptide library: pTyr-Var.
Turning to B1, the enrichment score is inactive: 1.26.

B2: the enrichment score was inactive: 0.967.

In the case of B3, the enrichment score is active: 6.48.

Regarding B4, the enrichment score is inactive: 1.34.

Regarding B5, the enrichment score was inactive: 0.74.

Consider B6, for which the enrichment score was inactive: 1.99.

Turning to B7, the enrichment score was inactive: 0.83.

In the case of B8, the enrichment score is inactive: 0.939.

In the case of B9, the enrichment score was inactive: 2.39.

On to B10, for which the enrichment score is inactive: 0.241.

As to B11, the enrichment score was inactive: 1.36.

Regarding B12, the enrichment score was inactive: 2.33.

In the case of B13, the enrichment score was inactive: 0.416.

Take B14: the enrichment score is inactive: 0.741.

On to B15, for which the enrichment score is inactive: 0.834.

On to B16, for which the enrichment score is inactive: 0.849.

As to B17, the enrichment score was inactive: 0.453.

In the case of B18, the enrichment score was inactive: 0.484.

For B19, the enrichment score was inactive: 0.756.

The next experiment concerns the target SHP2 C-SH2 domain wild-type. The experiment is described as above. The note with it: peptide library: pTyr-Var.
For B1, the enrichment score was inactive: 1.34.

Consider B2, for which the enrichment score was inactive: 0.922.

Take B3: the enrichment score was active: 4.06.

In the case of B4, the enrichment score was inactive: 1.6.

B5: the enrichment score was inactive: 0.477.

On to B6, for which the enrichment score is inactive: 1.96.

For the molecule B7, the enrichment score is inactive: 0.844.

Regarding B8, the enrichment score was inactive: 0.681.

As for B9, the enrichment score was inactive: 1.86.

In the case of B10, the enrichment score was inactive: 0.24.

Turning to B11, the enrichment score is inactive: 1.08.

On to B12, for which the enrichment score was inactive: 2.66.

Regarding B13, the enrichment score was inactive: 0.592.

Turning to B14, the enrichment score was inactive: 0.76.

Take B15: the enrichment score is inactive: 0.958.

Regarding B16, the enrichment score was inactive: 0.797.

Take B17: the enrichment score was inactive: 0.417.

For the molecule B18, the enrichment score was inactive: 0.474.

Consider B19, for which the enrichment score is inactive: 0.773.

In another experiment the target is SHP2 N-SH2 domain L43F. The experiment is described as above. The note with it: peptide library: pTyr-Var.
In the case of B1, the enrichment score was inactive: 1.35.

Turning to B2, the enrichment score is inactive: 0.919.

As to B3, the enrichment score was active: 4.87.

For B4, the enrichment score is inactive: 1.41.

On to B5, for which the enrichment score was inactive: 0.607.

B6: the enrichment score is inactive: 2.04.

For the molecule B7, the enrichment score was inactive: 0.75.

As to B8, the enrichment score is inactive: 0.635.

For B9, the enrichment score is inactive: 2.11.

Take B10: the enrichment score was inactive: 0.269.

Take B11: the enrichment score was inactive: 1.23.

Turning to B12, the enrichment score is inactive: 2.13.

For B13, the enrichment score was inactive: 0.768.

For B14, the enrichment score was inactive: 0.741.

B15: the enrichment score is inactive: 0.899.

In the case of B16, the enrichment score was inactive: 0.807.

With B17, the enrichment score was inactive: 0.507.

With B18, the enrichment score was inactive: 0.514.

For B19, the enrichment score was inactive: 1.07.

A further experiment concerns the target SHP2 N-SH2 domain T42A. The description is as above. Conditions: peptide library: pTyr-Var.
With B1, the enrichment score was inactive: 1.46.

On to B2, for which the enrichment score was inactive: 0.678.

For B3, the enrichment score was active: 4.49.

Consider B4, for which the enrichment score was inactive: 1.46.

Consider B5, for which the enrichment score was inactive: 0.634.

In the case of B6, the enrichment score is inactive: 1.9.

As to B7, the enrichment score is inactive: 0.617.

Consider B8, for which the enrichment score is inactive: 0.722.

In the case of B9, the enrichment score is inactive: 1.71.

For B10, the enrichment score was inactive: 0.36.

On to B11, for which the enrichment score was inactive: 1.04.

With B12, the enrichment score was inactive: 2.12.

Take B13: the enrichment score was inactive: 0.584.

For B14, the enrichment score is inactive: 0.658.

For B15, the enrichment score is inactive: 0.801.

Turning to B16, the enrichment score was inactive: 0.723.

Regarding B17, the enrichment score is inactive: 0.48.

In the case of B18, the enrichment score was inactive: 0.302.

Regarding B19, the enrichment score was inactive: 0.822.

The next experiment deals with SHP2 N-SH2 domain T52S. The description is as above. Conditions: peptide library: pTyr-Var.
Turning to B1, the enrichment score was inactive: 1.22.

Take B2: the enrichment score is inactive: 0.564.

Regarding B3, the enrichment score was active: 3.77.

Regarding B4, the enrichment score was inactive: 1.25.

With B5, the enrichment score is inactive: 0.757.

As to B6, the enrichment score was inactive: 2.17.

Regarding B7, the enrichment score was inactive: 0.659.

Turning to B8, the enrichment score was inactive: 0.732.

In the case of B9, the enrichment score is inactive: 2.17.

With B10, the enrichment score was inactive: 0.306.

Turning to B11, the enrichment score is inactive: 1.27.

Turning to B12, the enrichment score was inactive: 2.55.

On to B13, for which the enrichment score is inactive: 0.733.

Regarding B14, the enrichment score was inactive: 0.979.

Take B15: the enrichment score is inactive: 0.708.

As for B16, the enrichment score was inactive: 0.684.

In the case of B17, the enrichment score is inactive: 0.5.

For B18, the enrichment score was inactive: 0.614.

With B19, the enrichment score is inactive: 0.835.

The next experiment deals with SHP2 N-SH2 domain wild-type. The description is as above. Conditions: peptide library: pTyr-Var.
In the case of B1, the enrichment score is inactive: 1.54.

Turning to B2, the enrichment score was inactive: 1.

Take B3: the enrichment score is active: 7.64.

With B4, the enrichment score was inactive: 1.61.

Turning to B5, the enrichment score was inactive: 0.775.

Take B6: the enrichment score was inactive: 2.06.

On to B7, for which the enrichment score was inactive: 0.827.

Consider B8, for which the enrichment score was inactive: 0.907.

With B9, the enrichment score was inactive: 2.14.

Regarding B10, the enrichment score is inactive: 0.284.

Turning to B11, the enrichment score is inactive: 0.966.

Turning to B12, the enrichment score was inactive: 2.47.

On to B13, for which the enrichment score was inactive: 0.823.

As to B14, the enrichment score is inactive: 0.931.

As for B15, the enrichment score was inactive: 1.18.

On to B16, for which the enrichment score was inactive: 0.926.

On to B17, for which the enrichment score was inactive: 0.317.

As to B18, the enrichment score is inactive: 0.441.

Take B19: the enrichment score was inactive: 0.919.
